Reference: PubChem BioAssay AID624296 (National Center for Advancing Translational Sciences (NCATS), 2012)
Several values for one entry are separate records, joined by “and”; a condition that tells them apart may be missing. Equal entries are not always repeated. About 9,900 (2.8%) of roughly 350,000 compounds were called active. The shares of active, inactive and inconclusive entries below differ from those in the screen. The call rests on the fitted dose curve; in most records, active means well fitted activation curve with a large enough effect; inconclusive means small, poorly fitted or top-dose-only effect; inactive means no such curve, though single readings can be large or run the other way. Potencies of inconclusive entries are left out as doubtful fits.
Potency means the concentration at half of the fitted maximal effect; tags describe the fitted curve by direction and shape.

Assay: A quantitative high throughput screen for small molecules that induce DNA re-replication in MCF 10a normal breast cells. Further: nearly all actives have a fitted effect of over 50% in size. On activity, positive = re-replication: % of control where 0% means no effect.
Conditions: MCF 10A DNA re-replication, Hoechst nuclear intensity, 48 h; activity, positive = re-replication: at 46.1 µM (top of the series)
For `CN(CC(=O)Nc1ccc(N2CCOCC2)cc1)CC(=O)Nc1ccccc1C#N`, the Potency was inconclusive [activator, single point].
With `CCCc1nnn(S(=O)(=O)c2ccc([N+](=O)[O-])cc2)c1CCC` the “activity, positive = re-replication” value was inactive: -0.85%.
For `CCN(CC)S(=O)(=O)c1ccc(N2CCOCC2)c(NC(=O)Cc2ccc(Cl)cc2)c1`, the Potency was inconclusive [activator, partial curve, poor fit].
With `O=C(NCc1cccs1)C1CCN(c2ccc(S(=O)(=O)N3CCOCC3)cc2Cl)CC1` the Potency was active: 6.51 µM.
With `CC(C)[C@H](NC(=O)c1ccccc1F)C(=O)OCC(=O)NC(=O)NC1CCCCC1` the Potency was inconclusive [activator, partial curve, poor fit].
In the case of `CCOC(=O)c1cc(CC)sc1NC(=O)c1cccc(N2C(=O)CCC2=O)c1`, the “activity, positive = re-replication” value is reported as inactive: -83.7%.
With `Cc1ccc2c(c1)sc1nc(=O)n(-c3ccc(Cl)c(Cl)c3)c(=O)n12` the “activity, positive = re-replication” value was inactive: 9.47%.
In the case of `Cc1ccc(-c2csc(-c3c[nH]c4ccccc34)n2)cc1`, the activity, positive = re-replication is reported as inconclusive: 63.8% [activator].
For `Cc1ccc(-n2nc(C)c3c(C)c(CCC(=O)Nc4ccc(CN5CCCC5)cc4)c(C)nc32)cc1`, the Potency was active: 25.9 µM.
In the case of `C=CCn1c(SCC(=O)Nc2ccc3c(c2)OCO3)nnc1-c1ccccc1OC`, the “activity, positive = re-replication” value is reported as inactive: -0.86%.
For `COc1cccc(-c2cc(-c3cccnc3)nc(N)c2C#N)c1`, the Potency was inconclusive [activator, single point].
With `CCOc1ccc(Br)cc1S(=O)(=O)Nc1ccc(C(=O)Nc2ccc(C)cc2)cc1` the Potency was inconclusive [activator, partial curve, poor fit].
In the case of `FC(F)(F)c1nc2ccccc2nc1N/N=C\c1ccccc1`, the “activity, positive = re-replication” value is reported as inactive: 18.4%.
In the case of `O=C(NCc1ccccc1)C1=C[C@@H](c2ccc(Br)cc2)C[C@@H](OCc2ccc(CO)cc2)O1`, the Potency is reported as inconclusive [activator, single point].
With `COc1cc(C=C(C(C)=O)C(C)=O)ccc1O` the Potency was inconclusive [activator, partial curve, poor fit].
With `COc1ccc(N2C(=O)C(C)(C)C2c2c(O)ccc3ccccc23)cc1` (stereo unspecified) the Potency was inconclusive [activator, single point].
For `CCOc1ccc(-c2cnc(SCC(N)=O)nc2N)cc1`, the Potency was inconclusive [activator, single point].
In the case of `CNC(=O)c1cc(Oc2ccc(NC(=O)Nc3ccc(Cl)c(C(F)(F)F)c3)cc2)ccn1`, the Potency is reported as active: 8.41 µM and active: 16.4 µM.
For `CCN(CC)S(=O)(=O)c1ccc(C(=O)NC(=S)N(CCO)Cc2ccccc2)cc1`, the Potency was inconclusive [activator, partial curve, poor fit].
In the case of `CCOC(=O)C1(Cc2cccc(OC)c2)CCN(CC2CC=CCC2)CC1` (stereo unspecified), the Potency is reported as inconclusive [activator, single point].
In the case of `C=CCOc1nc2c(c(=O)n(Cc3ccc(Cl)c(Cl)c3)c(=O)n2C)n1C`, the Potency is reported as inconclusive [activator, partial curve, poor fit].
With `CCC(=O)Nc1ccc(/C=C(\C(C)=O)C(=O)c2ccccc2)cc1` the Potency was inconclusive [activator, single point].
For `CCN(CC)CCN(C(=O)c1ccc2c(c1)CCCC2)c1nc2ccc(C)cc2s1`, the Potency was inconclusive [activator, single point].
With `CCn1cc(CNC(=O)C2CCC(=O)N(CCc3cccc(F)c3)C2)cn1` (stereo unspecified) the Potency was inconclusive [activator, single point].
For `Cn1c2ccccc2c2c(C(=O)NCc3ccco3)cn(C3CCCCC3)c(=O)c21`, the Potency was inconclusive [activator, single point].
With `CCOC(=O)CCNC(=O)Nc1ccc2nc(C)n(Cc3cccc(Cl)c3)c(=O)c2c1` the Potency was inconclusive [activator, single point].
For `CCN(CC)C(=O)c1sc(NC(=O)C(Sc2ccccc2)c2ccccc2)c(C(=O)OC(C)C)c1C` (stereo unspecified), the “activity, positive = re-replication” value was inactive: 0.943%.
For `COc1cc(-c2noc(-c3ccccc3C(=O)NCc3ccco3)n2)cc(OC)c1OC`, the Potency was inconclusive [activator, full curve, poor fit].
In the case of `CCOC(=O)c1c(C)[nH]c(C(=O)OCC(=O)NC(C)(C)C)c1C`, the Potency is reported as inconclusive [activator, single point].
For `COc1cc(C(=O)NCc2cccnc2)ccc1OCC(=O)Nc1cccc(C(F)(F)F)c1`, the Potency was inconclusive [activator, single point].
With `NC(=O)CC(NC(=O)Cc1cccc2ccccc12)c1ccc(N2CCC(Cc3ccccc3)CC2)c([N+](=O)[O-])c1` (stereo unspecified) the Potency was inconclusive [activator, partial curve, poor fit].
With `O=C(CSc1nc2cc(Cl)ccc2s1)NC1CCCc2ccccc21` (stereo unspecified) the Potency was inconclusive [activator, partial curve].
With `Cc1c(NC(=O)C(C)OC(=O)COc2cccc3c2OC(C)(C)C3)c(=O)n(-c2ccccc2)n1C` (stereo unspecified) the Potency was inconclusive [activator, single point].
With `Cc1ccc(NCc2ccccc2O)cc1C` the “activity, positive = re-replication” value was inactive: 16.2%.
For `CCCCC(C(=O)NC1CCCC1)N(C(=O)c1snc(C(N)=O)c1N)c1ccc(C)cc1` (stereo unspecified), the Potency was inconclusive [activator, partial curve, poor fit].
In the case of `CC(C)[C@H](NC(N)=O)C(=O)NCCc1ccc(Cl)cc1`, the Potency is reported as inconclusive [activator, partial curve, poor fit].
With `Cc1nn(C)cc1NC(=O)CCSc1nc(-c2ccco2)cc(C(F)(F)F)n1` the Potency was inconclusive [activator, partial curve, poor fit].
In the case of `Cn1c(CNC(=O)c2ccc(Cl)cc2)nnc1SCC(=O)N1CCOCC1`, the “activity, positive = re-replication” value is reported as inactive: 0.531%.
With `Cc1ccccc1NC1=NC(=S)N(c2ccccc2)C12CCCCC2` the Potency was inconclusive [activator, single point].
In the case of `Cc1ccc(Cl)c2c1=NC(=O)C=2c1[nH]c(=S)[nH]c1O`, the activity, positive = re-replication is reported as inconclusive: -22% [activator].
In the case of `Cc1c(C(=O)NN)sc(-c2ccccc2)c1C#N`, the Potency is reported as inconclusive [activator, single point].
With `COc1ccc(/C=C2\SC(=S)N(CCCC(=O)N3CCCCC3CCO)C2=O)cc1` (stereo unspecified) the Potency was inconclusive [activator, single point].
In the case of `COCc1c(C(=O)NCCc2ccc(OC(F)F)cc2)oc2ccccc12`, the “activity, positive = re-replication” value is reported as inactive: 8.67%.
In the case of `C=CCOn1c(=O)c(-c2cc3ccccc3o2)[n+]([O-])c2ccccc21`, the Potency is reported as inconclusive [activator, partial curve].
For `CC(C)N(C(=O)Cn1cc(SCC(=O)NCC2CCCO2)c2ccccc21)C(C)C` (stereo unspecified), the Potency was inconclusive [activator, single point].
In the case of `CCOC(=O)N1CCN(C(=S)NC(=O)/C=C/c2ccc(C)cc2)CC1`, the “activity, positive = re-replication” value is reported as inactive: -0.668%.
With `O=C(CNc1ccccc1)N/N=C/c1c(O)ccc2ccccc12` the Potency was inconclusive [activator, single point].
For `COc1ccc(NC(=O)CSc2nc3c(c(=O)n2C)SCC3)cc1OC`, the “activity, positive = re-replication” value was inactive: 5.01%.
For `COc1ccc(/C=C/C(=O)c2cc(Br)ccc2OC(=O)c2ccco2)cc1OC`, the Potency was inconclusive [activator, partial curve, poor fit].
In the case of `Cc1cc(C)cc(NC(=O)N2CCC(c3nc4ccccc4o3)CC2)c1`, the “activity, positive = re-replication” value is reported as inactive: 18.9%.
For `COc1ccc(C(=O)N2CCN(C)C(=O)[C@@H]2C)cc1OC1CCN(C(C)=O)CC1`, the “activity, positive = re-replication” value was inactive: 1.27%.
For `O=C(NCCc1nnc2ccc(SCC(=O)N3CCCC3)nn12)c1ccc(F)cc1`, the “activity, positive = re-replication” value was inactive: 0.829%.
For `CCN1CCCC1CNc1ncnc2c1[nH]c1ccc(Cl)cc12` (stereo unspecified), the Potency was inconclusive [activator, single point].
In the case of `CCCCCCCCNS(=O)(=O)CCNCCc1ccccc1`, the Potency is reported as inconclusive [activator, single point].
In the case of `O=c1oc2ccccc2cc1-c1nc2c(s1)CCCC2`, the Potency is reported as active: 1.16 µM.
In the case of `COc1ccc(-c2cc3nc(C)cc(N4CC(C)CC(C)C4)n3n2)cc1` (stereo unspecified), the Potency is reported as inconclusive [activator, single point].
In the case of `CCc1nc(N2CCC(C)CC2)c2oc3ccccc3c2n1`, the Potency is reported as active: 18.4 µM.
In the case of `COc1cc(CNCc2ccccc2C(F)(F)F)cc(OC)c1`, the Potency is reported as inconclusive [activator, single point].
For `CC(C)OC(=O)c1ccc(NCc2cc(O)ccc2O)cc1Cl`, the Potency was active: 1.64 µM.
With `Cc1ccc(C2=NOC(C)(c3sc(-c4ccc(Cl)cc4)nc3C)C2)cc1` (stereo unspecified) the “activity, positive = re-replication” value was inactive: 0.585%.
For `COc1cc(OC)cc(C(=O)N=c2sc3ccccc3n2C)c1`, the Potency was inconclusive [activator, partial curve, poor fit].
With `COc1ccc(-c2cc(C(F)(F)F)nc(SCC(=O)NCc3cccs3)n2)cc1OC` the Potency was inconclusive [activator, full curve, poor fit].
In the case of `CCn1c(=N)c(S(=O)(=O)c2ccc(F)cc2)cc2c(=O)n3ccccc3nc21`, the Potency is reported as active: 13 µM.
With `COc1ccccc1NS(=O)(=O)c1cc(N)ccc1N1CCCCC1` the Potency was inconclusive [activator, single point].
With `COC(=O)C1=CN(CCOC23CC4CC(CC(C4)C2)C3)C=C(C(=O)OC)C1c1ccsc1` the Potency was inconclusive [activator, partial curve, poor fit].
With `Oc1ccc(-n2nnnc2SCc2c(F)cccc2Cl)cc1` the Potency was inconclusive [activator, single point].
